In a collection of fitness landscapes (doi:10.1126/science.1257360):
Some of the results follow.

B1: PhoQ; a variant is named by its letters at X, in order, P23837 (parent)
chain: MKKLLRLFFPLSLRVRFLLATAAVVLVLSLAYGMVALIGYSVSFDKTTFRLLRGESNLFYTLAKWENNKLHVELPENIDKQSPTMTLIYDENGQLLWAQRDVPWLMKMIQPDWLKSNGFHEIEADVNDTSLLLSGDHSIQQQLQEVREDDDDAEMTHSVAVNVYPATSRMPKLTIVVVDTIPVELKSSYMVWSWFIYVLSANLLLVIPLLWVAAWWSLRPIEALAKEVRELEEHNRELLNPATTRELTSLVRNLNRLLKSERERYDKYRTTLTDLTHSLKTPLXXLQXXLRSLRSEKMSVSDAEPVMLEQISRISQQIGYYLHRASMRGGTLLSRELHPVAPLLDNLTSALNKVYQRKGVNISLDISPEISFVGEQNDFVEVMGNVLDNACKYCLEFVEISARQTDEHLYIVVEDDGPGIPLSKREVIFDRGQRVDTLRPGQGVGLAVAREITEQYEGKIVAGESMLGGARMEVIFGRQHSAPKDE

Variants of: B1
Experiment: enrichment ratio after two sorts for PhoP signalling (ratio (wild type AVST 3.29)); higher = more functional
Conditions: with PhoP (E. coli)

Variant | enrichment ratio
YAWK | ≤ 0.25
TKQG | ≤ 0.25
IRGQ | ≤ 0.25
PGIS | ≤ 0.25
WCEP | ≤ 0.25
IHQK | ≤ 0.25
DWCG | ≤ 0.25
ASCL | 20.8
IRQN | ≤ 0.25
MSTK | ≤ 0.25
VTPS | ≤ 0.25
NMIE | ≤ 0.25
GNGG | ≤ 0.25
RHGK | ≤ 0.25
SKYA | ≤ 0.25
PEYM | ≤ 0.25
EYER | ≤ 0.25
INGK | ≤ 0.25
PMMS | ≤ 0.25
WNEP | ≤ 0.25
GITF | 18.4
MRQN | ≤ 0.25
MLQW | ≤ 0.25
VLKK | ≤ 0.25
FRVQ | ≤ 0.25

Variant | enrichment ratio
RVWA | ≤ 0.25
GDLM | ≤ 0.25
YSSL | ≤ 0.25
YTLE | 3.23
MTLE | 5.86
LWEL | ≤ 0.25
VFVT | ≤ 0.25
MAVH | ≤ 0.25
YYMK | ≤ 0.25
KNPR | ≤ 0.25
EMML | ≤ 0.25
KLVW | ≤ 0.25
VCRT | ≤ 0.25
NNDT | ≤ 0.25
HKTI | ≤ 0.25
SQIE | 5.2
SQDD | ≤ 0.25
FHTP | ≤ 0.25
GQPK | ≤ 0.25
PGCW | ≤ 0.25
VPAI | ≤ 0.25
YFVW | ≤ 0.25
GNRL | ≤ 0.25
GACG | ≤ 0.25
FNIW | ≤ 0.25

Variant | enrichment ratio
APEG | ≤ 0.25
LQGM | ≤ 0.25
TAYF | 8.45
WHGF | ≤ 0.25
PRYH | ≤ 0.25
WYCS | ≤ 0.25
DLFW | ≤ 0.25
LINH | ≤ 0.25
QEYD | ≤ 0.25
KIWC | ≤ 0.25
IFHS | ≤ 0.25
ASCS | 4.46
HMGG | ≤ 0.25
AMTQ | ≤ 0.25
DNRD | ≤ 0.25
LSPH | ≤ 0.25
HRDI | ≤ 0.25
DRDY | ≤ 0.25
HYTV | ≤ 0.25
QCAQ | ≤ 0.25
DIIT | ≤ 0.25
MRFC | ≤ 0.25
NWFT | ≤ 0.25
ILCA | ≤ 0.25
YMHM | ≤ 0.25

Variant | enrichment ratio
SLEV | ≤ 0.25
PIMW | ≤ 0.25
TQSI | 11.7
QVYF | ≤ 0.25
LSLP | ≤ 0.25
WKYQ | ≤ 0.25
LEIS | ≤ 0.25
LEVY | ≤ 0.25
EVFI | ≤ 0.25
KMYF | ≤ 0.25
SMNS | ≤ 0.25
PKPA | ≤ 0.25
AMRK | ≤ 0.25
GMGI | ≤ 0.25
HWLA | ≤ 0.25
ADHH | 1.63
YKKD | ≤ 0.25
QEYS | 37
REKG | ≤ 0.25
NFTD | ≤ 0.25
KIIF | ≤ 0.25
WNYH | ≤ 0.25
WNRE | ≤ 0.25
RPWV | ≤ 0.25
YCVR | ≤ 0.25

Variant | enrichment ratio
YKGD | ≤ 0.25
TDSD | ≤ 0.25
KTCY | ≤ 0.25
EVFS | ≤ 0.25
QDYA | ≤ 0.25
SHVT | ≤ 0.25
AMLG | 7.12
NNMA | 3.04
WIAM | ≤ 0.25
YVAH | ≤ 0.25
LKLP | ≤ 0.25
TDWW | ≤ 0.25
ERCV | ≤ 0.25
PPIC | ≤ 0.25
FRCW | ≤ 0.25
LVRI | ≤ 0.25
FESR | ≤ 0.25
PMGG | ≤ 0.25
CIRI | ≤ 0.25
WGPY | ≤ 0.25
KVSE | ≤ 0.25
ENHC | ≤ 0.25
TWRY | ≤ 0.25
VRHL | ≤ 0.25
RCKM | ≤ 0.25

Variant | enrichment ratio
LHHM | ≤ 0.25
VNRW | ≤ 0.25
TDFG | ≤ 0.25
HGAG | ≤ 0.25
DHRD | ≤ 0.25
HHTQ | ≤ 0.25
MVAM | 39.4
DWDG | ≤ 0.25
HTCG | ≤ 0.25
TVWR | 0.26
KDKC | ≤ 0.25
TQTR | ≤ 0.25
VIVS | ≤ 0.25
YPTG | ≤ 0.25
DFAA | ≤ 0.25
SPGM | ≤ 0.25
NLGL | ≤ 0.25
FHHI | ≤ 0.25
EPRK | ≤ 0.25
VLVC | ≤ 0.25
NCMQ | ≤ 0.25
VWTC | ≤ 0.25
AGIV | 14.4
MEMM | 0.38
AASW | ≤ 0.25

Variant | enrichment ratio
ELTM | ≤ 0.25
FNGF | ≤ 0.25
KRWW | ≤ 0.25
YTGA | ≤ 0.25
IARH | ≤ 0.25
IIDL | ≤ 0.25
GFLN | ≤ 0.25
NGVE | ≤ 0.25
SAYV | ≤ 0.25
AKCE | ≤ 0.25
MRAN | ≤ 0.25
YRVY | ≤ 0.25
HQPC | ≤ 0.25
ESDH | ≤ 0.25
RNPN | ≤ 0.25
IRSK | ≤ 0.25
GYVE | ≤ 0.25
FGKK | ≤ 0.25
VWMD | ≤ 0.25
FKAG | ≤ 0.25
QSEE | ≤ 0.25
MWPA | ≤ 0.25
DPWR | ≤ 0.25
APKW | ≤ 0.25
IHAP | ≤ 0.25

Variant | enrichment ratio
HFFG | ≤ 0.25
VALR | ≤ 0.25
ESMF | ≤ 0.25
EFLD | ≤ 0.25
WGDW | ≤ 0.25
NNVS | ≤ 0.25
MNYY | ≤ 0.25
QSAW | ≤ 0.25
THNP | ≤ 0.25
HNVR | ≤ 0.25
KTAI | ≤ 0.25
NFFT | ≤ 0.25
LCII | ≤ 0.25
AQMP | ≤ 0.25
FQWA | ≤ 0.25
PHRA | ≤ 0.25
KAHR | ≤ 0.25
FCLG | 6.96
LQGG | ≤ 0.25
VYQE | ≤ 0.25
